Measured values from the supplement of paper PMC6531468.
Some of the results follow. These are enrichments in a pooled selection; single values are uncertain. Each score is taken over the longer molecules that contain the sequence shown.

Legend:
Assay in all cases: 6-mer SELEX enrichment z-score vs GST control; IMP3 is the RNA-binding protein IGF2BP3; higher = more enriched by binding
IMP3 KH1-4 = details: construct: KH1-4 (164-579); SELEX round: R4
Protocol: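 SELEX-seq with GST-tagged IMP3 KH1-4 (Pro164-Lys579) and an N40 RNA pool, round 4. 6-mer z-score of sequence-tag enrichment normalised to the corresponding GST SELEX round; RNA k-mers written as DNA (T for U).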

IMP3 RRM1-2 = details: construct: RRM1-2 (1-163); SELEX round: R2
Sequence of IMP3 RRM1-2 (chain, as listed by the source): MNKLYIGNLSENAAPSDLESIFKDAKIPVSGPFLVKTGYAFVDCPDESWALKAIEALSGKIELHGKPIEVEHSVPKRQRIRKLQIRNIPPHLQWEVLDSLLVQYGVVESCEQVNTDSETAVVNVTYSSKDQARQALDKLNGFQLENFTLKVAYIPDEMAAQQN
Protocol: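 SELEX-seq with GST-tagged IMP3 RRM1-2 (Met1-Asn163) and an N40 RNA pool, round 2. 6-mer enrichment z-score normalised to GST SELEX. RNA written as DNA (T = U).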

IMP3 full-length = IMP3 full-length (UniProt O00425); details: construct: FL IMP3 (1-579); SELEX round: R4
Sequence of UniProt O00425 (O00425 whole entry): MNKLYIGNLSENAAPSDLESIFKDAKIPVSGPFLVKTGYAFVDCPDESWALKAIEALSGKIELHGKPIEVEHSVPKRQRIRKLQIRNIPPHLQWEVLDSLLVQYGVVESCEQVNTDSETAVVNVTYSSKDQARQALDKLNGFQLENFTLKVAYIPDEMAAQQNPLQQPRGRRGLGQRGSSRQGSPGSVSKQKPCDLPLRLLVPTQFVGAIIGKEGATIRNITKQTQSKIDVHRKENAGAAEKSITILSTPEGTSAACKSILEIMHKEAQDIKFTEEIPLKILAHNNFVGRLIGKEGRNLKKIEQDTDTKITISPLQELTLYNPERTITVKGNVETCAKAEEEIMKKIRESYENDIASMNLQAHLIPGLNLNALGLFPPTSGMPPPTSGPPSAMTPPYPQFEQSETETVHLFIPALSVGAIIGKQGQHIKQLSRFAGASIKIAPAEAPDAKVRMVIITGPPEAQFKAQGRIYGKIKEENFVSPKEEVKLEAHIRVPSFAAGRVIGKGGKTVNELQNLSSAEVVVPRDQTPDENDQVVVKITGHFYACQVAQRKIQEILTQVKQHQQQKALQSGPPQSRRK
Protocol: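 SELEX-seq with GST-tagged full-length IMP3 and an N40 RNA pool, round 4. Each 6-mer is scored as an enrichment z-score of sequence tags containing it, normalised to the matching GST SELEX round. RNA written as DNA (T = U).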

IMP3 KH1-2 = details: construct: KH1-2 (164-376); SELEX round: R4
Sequence of IMP3 KH1-2 (chain, as listed by the source): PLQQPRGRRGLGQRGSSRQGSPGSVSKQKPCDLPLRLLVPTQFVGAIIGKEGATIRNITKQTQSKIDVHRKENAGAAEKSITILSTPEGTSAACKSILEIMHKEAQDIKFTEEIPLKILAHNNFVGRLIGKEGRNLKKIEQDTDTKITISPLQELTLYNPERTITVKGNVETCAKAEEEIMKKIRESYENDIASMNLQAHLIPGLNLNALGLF
Protocol: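 SELEX-seq with GST-tagged IMP3 KH1-2 (Pro164-Phe376) and an N40 RNA pool, round 4 (stringent 300/600 mM KCl washes). 6-mer z-score of sequence-tag enrichment normalised to the corresponding GST SELEX round; RNA k-mers written as DNA (T for U).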

IMP3 KH3-4 = details: construct: KH3-4 (377-579); SELEX round: R4
Sequence of IMP3 KH3-4 (chain, as listed by the source): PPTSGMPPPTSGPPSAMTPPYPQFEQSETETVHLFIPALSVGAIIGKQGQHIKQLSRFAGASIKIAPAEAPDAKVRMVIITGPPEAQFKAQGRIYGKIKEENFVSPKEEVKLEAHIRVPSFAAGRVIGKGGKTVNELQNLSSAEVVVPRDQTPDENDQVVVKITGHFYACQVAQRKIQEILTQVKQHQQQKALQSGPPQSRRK
Protocol: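 SELEX-seq with GST-tagged IMP3 KH3-4 (Pro377-Lys579) and an N40 RNA pool, round 4. 6-mer z-score of sequence-tag enrichment normalised to the corresponding GST SELEX round; RNA k-mers written as DNA (T for U).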

Sequence of IMP3 KH1-4 (chain, as listed by the source): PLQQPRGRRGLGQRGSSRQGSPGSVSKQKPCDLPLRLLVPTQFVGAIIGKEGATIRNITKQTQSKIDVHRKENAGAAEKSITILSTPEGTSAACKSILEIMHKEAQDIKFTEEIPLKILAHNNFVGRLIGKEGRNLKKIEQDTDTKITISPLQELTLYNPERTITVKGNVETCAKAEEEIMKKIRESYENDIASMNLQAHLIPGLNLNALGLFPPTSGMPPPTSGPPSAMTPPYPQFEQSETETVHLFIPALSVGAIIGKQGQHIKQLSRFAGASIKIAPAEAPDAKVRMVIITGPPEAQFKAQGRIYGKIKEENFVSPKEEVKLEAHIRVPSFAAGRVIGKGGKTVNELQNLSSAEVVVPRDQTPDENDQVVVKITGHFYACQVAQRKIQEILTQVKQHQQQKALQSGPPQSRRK

Row | Sequence | 6-mer SELEX enrichment z-score (IMP3 KH1-4) | 6-mer SELEX enrichment z-score (IMP3 RRM1-2) | 6-mer SELEX enrichment z-score (IMP3 full-length) | 6-mer SELEX enrichment z-score (IMP3 KH1-2) | 6-mer SELEX enrichment z-score (IMP3 KH3-4)
1 | CAGACT | -0.065 | -0.019 | -0.135 | 0.089 | -0.197
2 | AGGGCT | 0.04 | 0.292 | 0.32 | 0.205 | 0.363
3 | TGCTAC | 0.205 | 0.128 | -0.022 | 0.187 | 0.086
4 | GGGGGC | 1.85 | 0.191 | 0.962 | 2.75 | 1.93
5 | CCGTAG | -1.11 | -0.217 | -0.511 | -0.991 | -1.07
6 | TGCATA | 0.619 | 0.375 | 0.616 | 0.537 | 0.606
7 | CACTCC | 0.045 | 0.416 | -0.114 | 0.137 | -0.858
8 | GTTTCC | -0.424 | 0.164 | -0.303 | -0.358 | -0.421
9 | TCGACT | -0.666 | 0.016 | -0.362 | -0.569 | -0.595
10 | GAGACA | -0.316 | -0.539 | -0.254 | -0.384 | -0.282
